# Experimental data published in the supplement of paper PMC8728848.
# The list shows a part of the results.
# B1: ZG16p (Homo sapiens), O60844 (protein)
# chain: ARSSSYSGEYGGGGGKRFSHSGNQLDGPITALRVRVNTYYIVGLQVRYGKVWSDYVGGRNGDLEEIFLHPGESVIQVSGKYKWYLKKLLFVTDKGRYLSFGKDSGTSFNAVPLHPNTVLRFISGRSGSLIDAIGLHWDVYPSSCSRC
# Key:
# Experiment in all cases: glycan array binding signal (z-score within array); higher = stronger binding
# Details in all cases: glycan notation: IUPAC condensed, linker removed
# [1] = molecular target: Neu5Ac(a2-3)Gal(b1-3)[Fuc(a1-4)]GlcNAc(b1-3)Gal(b1-4)Glc
# Procedure, shortened: (§1)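 The Consortium for Functional Glycomics database supplied 3228 glycan arrays, of which those lacking an available protein sequence were dropped. The binding signal, a within-array Z-score, was averaged across arrays of the same protein sequence and across linkers. Negative scores can be read as non-binding.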
# [2] = molecular target: Neu5Ac(a2-3)Gal(b1-3)[Neu5Ac(a2-6)]GalNAc
# Procedure, shortened: as §1
# [3] = molecular target: Neu5Ac(a2-3)Gal(b1-3)[Neu5Ac(a2-6)]GalNAc(b1-4)Gal(b1-4)Glc
# Procedure, shortened: as §1
# [4] = molecular target: Neu5Ac(a2-3)Gal(b1-3)[Neu5Ac(a2-6)]GlcNAc(b1-3)Gal(b1-4)Glc
# Procedure, shortened: as §1
# Neu5Ac(a2-3)Gal(b1-4)Glc = molecular target: Neu5Ac(a2-3)Gal(b1-4)Glc
# Procedure, shortened: as §1
# [5] = molecular target: Neu5Ac(a2-3)Gal(b1-4)GlcNAc
# Procedure, shortened: as §1
# [6] = molecular target: Neu5Ac(a2-3)Gal(b1-4)GlcNAc(b1-2)Man(a1-3)[Neu5Ac(a2-3)Gal(b1-4)GlcNAc(b1-2)Man(a1-6)]Man(b1-4)GlcNAc(b1-4)[Fuc(a1-6)]GlcNAc
# Procedure, shortened: as §1
# [7] = molecular target: Neu5Ac(a2-3)Gal(b1-4)GlcNAc(b1-3)Gal(b1-4)Glc
# Procedure, shortened: as §1
# [8] = molecular target: Neu5Ac(a2-3)Gal(b1-4)GlcNAc(b1-6)GalNAc(a1-3)Gal(b1-4)Glc
# Procedure, shortened: as §1
# [9] = molecular target: Neu5Ac(a2-3)Gal(b1-4)GlcNAc6S(b1-3)Gal6S(b1-3)GlcNAc6S
# Procedure, shortened: as §1
# [10] = molecular target: Neu5Ac(a2-3)Gal(b1-4)[3dFuc(a1-3)]GlcNAc(b1-3)Gal
# Procedure, shortened: as §1
# [11] = molecular target: Neu5Ac(a2-3)Gal(b1-4)[4dFuc(a1-3)]GlcNAc(b1-3)Gal
# Procedure, shortened: as §1
# [12] = molecular target: Neu5Ac(a2-3)Gal(b1-4)[6dTal(a1-3)]GlcNAc(b1-3)Gal
# Procedure, shortened: as §1
# [13] = molecular target: Neu5Ac(a2-3)Gal(b1-4)[Fuc(a1-3)]Glc
# Procedure, shortened: as §1
# [14] = molecular target: Neu5Ac(a2-3)Gal(b1-4)[Fuc(a1-3)]GlcNAc
# Procedure, shortened: as §1
# [15] = molecular target: Neu5Ac(a2-3)Gal(b1-4)[Fuc(a1-3)]GlcNAc(b1-3)Gal
# Procedure, shortened: as §1
# [16] = molecular target: Neu5Ac(a2-3)Gal(b1-4)[Fuc(a1-3)]GlcNAc(b1-3)Gal(b1-4)Glc
# Procedure, shortened: as §1
# [17] = molecular target: Neu5Ac(a2-3)Gal(b1-4)[Fuc(a1-3)]GlcNAc(b1-3)Gal(b1-4)[Fuc(a1-3)]GlcNAc(b1-3)Gal(b1-4)Glc
# Procedure, shortened: as §1
# [18] = molecular target: Neu5Ac(a2-3)Gal(b1-4)[Fuc(a1-3)]GlcNAc(b1-4)GalNAc(b1-3)Gal(b1-4)Glc
# Procedure, shortened: as §1
# [19] = molecular target: Neu5Ac(a2-3)Gal(b1-4)[Fuc(a1-3)]GlcNAc(b1-6)Gal(b1-4)Glc
# Procedure, shortened: as §1
# [20] = molecular target: Neu5Ac(a2-3)Gal(b1-4)[Fuc(a1-3)]GlcNAc6S(b1-3)Gal(b1-4)Glc
# Procedure, shortened: as §1
# [21] = molecular target: Neu5Ac(a2-3)Gal(b1-4)[Fuc2Me(a1-3)]GlcNAc(b1-3)Gal
# Procedure, shortened: as §1
# [22] = molecular target: Neu5Ac(a2-3)Gal(b1-4)[Qui(a1-3)]GlcNAc(b1-3)Gal
# Procedure, shortened: as §1
# [23] = molecular target: Neu5Ac(a2-3)Gal(b1-4)[Rha(a1-3)]GlcNAc(b1-3)Gal
# Procedure, shortened: as §1
# Neu5Ac(a2-3)Gal3S = molecular target: Neu5Ac(a2-3)Gal3S
# Procedure, shortened: as §1
# [24] = molecular target: Neu5Ac(a2-3)Gal6S(b1-4)[Fuc(a1-3)]GlcNAc(b1-3)Gal(b1-4)Glc
# Procedure, shortened: as §1
# [25] = molecular target: Neu5Ac(a2-3)Gal6S(b1-4)[Fuc(a1-3)]GlcNAc6S(b1-3)Gal(b1-4)Glc
# Procedure, shortened: as §1
# [26] = molecular target: Neu5Ac(a2-3)GalNAc(b1-4)GlcNAc
# Procedure, shortened: as §1
# [27] = molecular target: Neu5Ac(a2-3)GalNBz(b1-4)GlcNAc
# Procedure, shortened: as §1
# [28] = molecular target: Neu5Ac(a2-3)[GalNAc(b1-4)]Gal(b1-3)Gal
# Procedure, shortened: as §1
# [29] = molecular target: Neu5Ac(a2-3)[GalNAc(b1-4)]Gal(b1-3)GalNAc(b1-4)[Neu5Ac(a2-3)]Gal(b1-4)Glc
# Procedure, shortened: as §1
# [30] = molecular target: Neu5Ac(a2-3)[GalNAc(b1-4)]Gal(b1-3)Glc
# Procedure, shortened: as §1
# [31] = molecular target: Neu5Ac(a2-3)[GalNAc(b1-4)]Gal(b1-4)Glc
# Procedure, shortened: as §1
# [32] = molecular target: Neu5Ac(a2-3)[GalNAc(b1-6)]Gal(b1-4)Glc
# Procedure, shortened: as §1
# Neu5Ac(a2-6)Gal = molecular target: Neu5Ac(a2-6)Gal
# Procedure, shortened: as §1
# [33] = molecular target: Neu5Ac(a2-6)Gal(b1-3)GalNAc(b1-4)Gal(b1-4)Glc
# Procedure, shortened: as §1
# [34] = molecular target: Neu5Ac(a2-6)Gal(b1-3)GlcNAc(b1-3)[Fuc(a1-3)[Gal(b1-4)]GlcNAc(b1-6)]Gal(b1-4)Glc
# Procedure, shortened: as §1
# [35] = molecular target: Neu5Ac(a2-6)Gal(b1-3)GlcNAc(b1-3)[Gal(b1-4)GlcNAc(b1-6)]Gal(b1-4)Glc
# Procedure, shortened: as §1
# [36] = molecular target: Neu5Ac(a2-6)Gal(b1-3)[Neu5Ac(a2-6)]GalNAc(b1-4)Gal(b1-4)Glc
# Procedure, shortened: as §1
# Neu5Ac(a2-6)Gal(b1-4)Glc = molecular target: Neu5Ac(a2-6)Gal(b1-4)Glc
# Procedure, shortened: as §1
# [37] = molecular target: Neu5Ac(a2-6)Gal(b1-4)GlcNAc
# Procedure, shortened: as §1
# [38] = molecular target: Neu5Ac(a2-6)Gal(b1-4)GlcNAc(b1-2)Man(a1-3)[Neu5Ac(a2-6)Gal(b1-4)GlcNAc(b1-2)Man(a1-6)]Man(b1-4)GlcNAc(b1-4)GlcNAc
# Procedure, shortened: as §1
# [39] = molecular target: Neu5Ac(a2-6)Gal(b1-4)GlcNAc(b1-2)Man(a1-3)[Neu5Gc(a2-6)Gal(b1-4)GlcNAc(b1-2)Man(a1-6)]Man(b1-4)GlcNAc(b1-4)GlcNAc
# Procedure, shortened: as §1
# [40] = molecular target: Neu5Ac(a2-6)Gal(b1-4)GlcNAc(b1-2)[Neu5Ac(a2-3)Gal(b1-4)GlcNAc(b1-4)]Man(a1-3)[Neu5Ac(a2-3)Gal(b1-4)GlcNAc(b1-2)Man(a1-6)]Man(b1-4)GlcNAc(b1-4)GlcNAc
# Procedure, shortened: as §1
# [41] = molecular target: Neu5Ac(a2-6)Gal(b1-4)GlcNAc(b1-3)Gal(b1-4)Glc
# Procedure, shortened: as §1
binder,measurement,setting,value
B1,glycan array binding signal (z-score),[1],-0.328
same,glycan array binding signal (z-score),[2],-0.325
same,glycan array binding signal (z-score),[3],-0.257
same,glycan array binding signal (z-score),[4],-0.328
same,glycan array binding signal (z-score),Neu5Ac(a2-3)Gal(b1-4)Glc,-0.276
same,glycan array binding signal (z-score),[5],-0.317
same,glycan array binding signal (z-score),[6],-0.42
same,glycan array binding signal (z-score),[7],-0.315
same,glycan array binding signal (z-score),[8],-0.328
same,glycan array binding signal (z-score),[9],-0.328
same,glycan array binding signal (z-score),[10],-0.328
same,glycan array binding signal (z-score),[11],-0.328
same,glycan array binding signal (z-score),[12],-0.328
same,glycan array binding signal (z-score),[13],-0.328
same,glycan array binding signal (z-score),[14],-0.328
same,glycan array binding signal (z-score),[15],-0.328
same,glycan array binding signal (z-score),[16],-0.328
same,glycan array binding signal (z-score),[17],-0.328
same,glycan array binding signal (z-score),[18],-0.328
same,glycan array binding signal (z-score),[19],-0.328
same,glycan array binding signal (z-score),[20],-0.328
same,glycan array binding signal (z-score),[21],-0.328
same,glycan array binding signal (z-score),[22],-0.328
same,glycan array binding signal (z-score),[23],-0.328
same,glycan array binding signal (z-score),Neu5Ac(a2-3)Gal3S,-0.328
same,glycan array binding signal (z-score),[24],-0.328
same,glycan array binding signal (z-score),[25],-0.328
same,glycan array binding signal (z-score),[26],-0.328
same,glycan array binding signal (z-score),[27],-0.288
same,glycan array binding signal (z-score),[28],-0.328
same,glycan array binding signal (z-score),[29],-0.328
same,glycan array binding signal (z-score),[30],-0.328
same,glycan array binding signal (z-score),[31],-0.328
same,glycan array binding signal (z-score),[32],-0.328
same,glycan array binding signal (z-score),Neu5Ac(a2-6)Gal,-0.328
same,glycan array binding signal (z-score),[33],-0.328
same,glycan array binding signal (z-score),[34],-0.328
same,glycan array binding signal (z-score),[35],-0.328
same,glycan array binding signal (z-score),[36],-0.328
same,glycan array binding signal (z-score),Neu5Ac(a2-6)Gal(b1-4)Glc,-0.266
same,glycan array binding signal (z-score),[37],-0.317
same,glycan array binding signal (z-score),[38],-0.42
same,glycan array binding signal (z-score),[39],-0.328
same,glycan array binding signal (z-score),[40],-0.328
same,glycan array binding signal (z-score),[41],-0.328
